Read counts are not given, so values of variants with three or more changes are uncertain.
B1: OR4K15 (parent)
chain: GUUAACGGUCAUAGGCCAUGGAAACUAGGAGCACCAUUUCGCUGCCAGUGAAGAAAUGAACAAAGAAAAUCUGGGCCAGGCAGGCAUCAAAAGAAAUAGUCUUGCGCUCAACCAGAAAGUCUGUAAUCAUUUUAAGGGUA

Variants of: B1
Assay: self-cleavage, relative activity (ratio to wild type); higher = more cleavage; in vitro, sequencing; the parent is a self-cleaving ribozyme

Row | Variant | self-cleavage
1 | GUUAACGGUCGUAGGCCAUGGAAACUAGGAGCACCAUUUCGCUGCCAGUGAAGAAAUGAACGAAGAAAAUCUGGGCCAGGCAGGCAUCGAAAGAAAUAGUCUUGCGCUCAACCAGAAAGUCUGUAAUCAUUUUAAGGGUA | 1.05
2 | GUUAACGGUCGUAGGCCAUGGAAACUAGGAGCACCAUUUCGCUGCCAGUGAAGAAGUGUACAAAGAAGAUCUGGGCCAGGCAGGCGUCAAAUGAAGAAGUCUUGCGCUCAACCAGAAAGUCUGUAAUCAUUUUAAGGGUA | 1.34
3 | GUUAACGGUCGUAGGCCAUGGAAACUAGGAGCACCAUUUCGCUGCCAGUGAAGAAAUGAGCAUAGAAAAUCUGGGCCGGGCAGGCAUCAAAAGAAAUAGUCUUGCGCUCAACCAGAAAGUCUGUAAUCAUUUUAAGGGUA | 0.22
4 | GUUAACGGUCGUAGGCCAUGGAAACUAGGAGCACCAUUUCGCUGCCAGUGAAGAAGUGAACAAAGAAAAUCUGGGCCAGGCAGGCAACAAAAGAAACAGUCUUGCGCUCAACCAGGAAGUCUGUAAUCAUUUUAAGGGUA | 0.44
5 | GUUAACGGUCGUAGGCCAUGGAAACUAGGAGCACCAUUUCGCUGCCAGUGAAGAAAUGGACAAAGAAAAUCUGGGCCAGGCAGGCAUCAAAGGAAAUAGUCUUGCGCUCAACCAGAAAGUCUGUAAUCAUUUUAAGGGUA | 2.27
6 | GUUAACGGUCGUAGGCCAUGGAAACUAGGAGCACCAUUUCGCUGCCAGUGAAGAAAUGAACUAAGAAAAUCUGGGCCAGGCAGGCAUCAAAAGAAAAAGUCUUGCGCUCAACCAGAAAGUCUGUAAUCAUUUUAAGGGUA | 0.73
7 | GUUAACGGUCGUAGGCCAUGGAAACUAGGAGCACCAUUUCGCUGCCAGUGAAGAAAUGGACAAAGAAAAUCAGGGCCAGGCAGGCAUCAAAAGAAAUAGUCUUGCGCACAACCAGAAAGUCUGUAAUCAUCUUAAGGGUA | 0.01
8 | GUUAACGGUCGUAGGCCAUGGAAACUAGGAGCACCAUUUCGCUGCCAGUGAAGAAAUGAACAACGAAAAUCUGGGCCAGGCAGGCAUCAAAAGAAAUAGUCUUGCGCUCAACCAGAAAGUCUGUAACCAUUUUAAGGGUA | 1.42
9 | GUUAACGGUCGUAGGCCAUGGAAACUAGGAGCACCAUUUCGCUGCCAGUGAAGAGAUGAACAAAGAAAGUCUGGGCCAGGCAGGCAUCAAAAGAAAUAGUCUUGCGCUCAACCAGAAAGUCUGUAACCAUUUUAAGGGUA | 0.32
10 | GUUAACGGUCGUAGGCCAUGGAAACUAGGAGCACCAUUUCGCUGCCAGUGAAGAAAUGAACAGAGAAAAUCUGGGCCGGGCAGGCAUCAAAAGAAAUAGUCUUGCGCUCAACCAGAAAGUCUGUAGUCAUUUUAAGGGUA | 0.13
11 | GUUAACGGUCGUAGGCCAUGGAAACUAGGAGCACCAUUUCGCUGCCAGUGAAGAAAUGAACAUAGAGGAUCUGGGCCAGGCAGGCAUCAAAAGAAAUAGUCUUGCGCUCAACCAGAAAGUCUGUAAUCAUUUUAAGGGUA | 2.09
12 | GUUAACGGUCGUAGGCCAUGGAAACUAGGAGCACCAUUUCGCUGCCAGUGAAGAAAUGAACAGAGAGAGUCUGGGCCAGGCAGGCAUCAAAAGAAAUAGUCUUGCGCUCAACCAGAAAGUCUGUAAUCAUUUUAAGGGUG | 0.58
13 | GUUAACGGUCGUAGGCCAUGGAAACUAGGAGCACCAUUUCGCUGCCAGUGAAGAAAUGAUCAAAGAAAAUCUGGGCCAGGCAGGCAUCAAAAGAAAUAGUCUUGCGCCCAACCAGAAAGUCUGUAAUCAUUCUAAGGGUA | 0
14 | GUUAACGGUCGUAGGCCAUGGAAACUAGGAGCACCAUUUCGCUGCCAGUGAAGAAAUGAACAGAGAAAAUCUGGGCCAGGCAGGCAUCAAAAGAAAUAGUCUUGCGCCCAACCAGAAAGUCUGUAAUCAUUUUAAGGGUA | 0.01
15 | GUUAACGGUCGUAGGCCAUGGAAACUAGGAGCACCAUUUCGCUGCCAGUGAAGAAAUGAACGAAGAAGAUCUGGGCCAGGCAGGCAUCAAAAGAGAUAGUCUUGCGCUCAACCAGAAAGUCUGUAAUCAUCUUAAGGGUA | 1.37
16 | GUUAACGGUCGUAGGCCAUGGAAACUAGGAGCACCAUUUCGCUGCCAGUGAAGAAAUGGACAAAGAAAAUCUGGGCCAGGCAGGCAUCGAAAGAAAUAGUCUUGCGCUCAACCAGAAAGUCUGUAAUCAUUUUAAGGGUA | 0.73
17 | GUUAACGGUCGUAGGCCAUGGAAACUAGGAGCACCAUUUCGCUGCCAGUGAAGAGACGAACAAAGAAAAUCUGGGCCAGGCAGGCAUCAAAAAGGAUAGUCUCGCGCUCAACCAGAAAGUCUGUAAUCAUUUUAAGGGUA | 0.47
18 | GUUAACGGUCGUAGGCCAUGGAAACUAGGAGCACCAUUUCGCUGCCAGUGAAGAAAUGAACGAAGAAAAUCUGGGCCAGGCAGGCAUCAAAAGAAGUAGUCUUGCGCUCAACCGGAAAGUCUGUAAUCAUUUUAAGGGUA | 0.17
19 | GUUAACGGUCGUAGGCCAUGGAAACUAGGAGCACCAUUUCGCUGCCAGUGAAGAAAUGAACGAAGAAAAUCUGGGCCAGGCAGGCGUCAAAAGAAAUAGUCUUGCGCUCAACCAGAAAGUCUGUAAUCAUUUUAAGGGUA | 0.95
20 | GUUAACGGUCGUAGGCCAUGGAAACUAGGAGCACCAUUUCGCUGCCAGUGAAGAACUGGACAAGGAAAAUCUGGGCCAGGCAGGCAUCAAAAGAACUAGUCUUGCGCUCAACCAGAAAGUCUGUAAUCAUUUUAAGGGUA | 0.38
21 | GUUAACGGUCGUAGGCCAUGGAAACUAGGAGCACCAUUUCGCUGCCAGUGAAGAAAUGGACAAAGAAAAUCUGGGCCAGGCAGGCAUCAAAAGAAAUAGUCAUGCGCUCAACCAGAAAGUCUGUAAUCAUCUUAAGGGUA | 0.54
